The labels stand for the following.
B1: Caulobacter ParB omega fusion; a variant is named by its letters at X, in order, B8GW30 (parent)
chain: MESVVVGEPGMSEGRRGLGRGLSALLGEVDAAPAQAPGEQLGGSREAPIEILQRNPDQPRRTFREEDLEDLSNSIREKGVLQPILVRPSPDTAGEYQIVAGERAWRAAQRAGLKTVPIMVRELDDLAVLEIGIIENVQRADLNVLEEALSYKVLMEKFERTQENIAQTIGKSXSHVANXMRLLXLPDEVQSYLVSGELTAXHARAIAAAADPVALAKQIIEGGLSVRETEALARKAPNLSAGKSKGGRPPRVKDTDTQALESDLSSVLGLDVSIDHRGSTGTLTITYATLEQLDDLCNRLTRGI

Here are results for 97 variants from a collection of fitness landscapes (doi:10.1016/j.celrep.2020.107928).

The full ranking holds about 81,000 sequences; the median of “one-hybrid fitness for binding parS DNA” is about -0.17, and the highest 2% start at about 0.51. The list shows a part of the results.

This test covers variants of B1. Briefly: one-hybrid fitness for binding parS DNA (scaled: cognate 1, non-cognate 0); higher = stronger binding. As to conditions: with parS DNA site. Summed up:
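In E. coli USO, a HIS3 reporter with its site placed 19 bp from the promoter was used to select Caulobacter ParB variants randomised at four specificity codons. Growth lasted 48 hours at 37°C on histidine-free M9 containing 0.1 mM IPTG and 5 mM 3-AT. Fitness was taken as the log change in variant-to-wild-type read ratio from Illumina sequencing of pre- and post-selection plasmids, rescaled between the non-cognate and cognate sites.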
Turning to YTPV, the “one-hybrid fitness for binding parS DNA” value was no more than 0.2.
For PMHE the value was no more than 0.2; for NSDS, no more than 0.2; for RFWR, no more than 0.2.
For TRCI the value was no more than 0.2.
For AFFS the value was no more than 0.2.
In the case of QKTH, the “one-hybrid fitness for binding parS DNA” value is no more than 0.2.
For LMWR the value was no more than 0.2.
Take SKPL: the “one-hybrid fitness for binding parS DNA” value is no more than 0.2.
For WDMG the value was no more than 0.2; for CCNL, no more than 0.2.
For YYSS the value was no more than 0.2; for EKQF, no more than 0.2; for AYPN, no more than 0.2.
For SIMR the value was no more than 0.2; for RCIF, 0.245.
Turning to QVQI, the “one-hybrid fitness for binding parS DNA” value was no more than 0.2.
With ATYV the figure was no more than 0.2; with LIYI, no more than 0.2.
For TQTK the value was no more than 0.2; for KKGG, no more than 0.2; for QPEF, no more than 0.2.
On to FNSG, for which the “one-hybrid fitness for binding parS DNA” value was no more than 0.2.
With RRHC the figure was 0.616; with NAEG, no more than 0.2; with KDTR, no more than 0.2.
With RRWN the figure was 0.323.
For SNQR the value was no more than 0.2; for NNRG, no more than 0.2.
As to NLVS, the “one-hybrid fitness for binding parS DNA” value was no more than 0.2.
For WLMG the value was no more than 0.2; for FAGS, no more than 0.2.
For APQF the value was no more than 0.2; for TAYY, no more than 0.2; for DGGV, no more than 0.2.
For DVMT the value was no more than 0.2; for HHAT, no more than 0.2.
Take SGKW: the “one-hybrid fitness for binding parS DNA” value is no more than 0.2.
With QVTV the figure was no more than 0.2; with MKHV, no more than 0.2; with LAVP, no more than 0.2.
With HILF, the “one-hybrid fitness for binding parS DNA” value was no more than 0.2.
With PKLA the figure was no more than 0.2.
For KTHT the value was no more than 0.2.
For the variant IQQG, the “one-hybrid fitness for binding parS DNA” value was no more than 0.2.
For HGSL the value was no more than 0.2.
For WPDR the value was no more than 0.2; for HQNG, no more than 0.2.
For SDRY the value was no more than 0.2; for QKLE, no more than 0.2; for AIAH, no more than 0.2.
Take APEF: the “one-hybrid fitness for binding parS DNA” value is no more than 0.2.
For QLQH the value was no more than 0.2; for GCTK, no more than 0.2; for CCAY, no more than 0.2.
For SRPW the value was no more than 0.2; for VNPP, no more than 0.2; for DYMS, no more than 0.2.
For WWEG the value was no more than 0.2; for THSR, no more than 0.2; for ERPF, no more than 0.2.
Regarding PMML, the “one-hybrid fitness for binding parS DNA” value is no more than 0.2.
Take EACF: the “one-hybrid fitness for binding parS DNA” value was no more than 0.2.
As for PLPV, the “one-hybrid fitness for binding parS DNA” value is no more than 0.2.
With KRIR the figure was no more than 0.2.
With HAAY the figure was no more than 0.2.
With DEAM the figure was no more than 0.2; with PPWV, no more than 0.2.
Turning to QNRN, the “one-hybrid fitness for binding parS DNA” value was no more than 0.2.
For SYRC the value was no more than 0.2; for MHNS, no more than 0.2; for KMMR, no more than 0.2.
Turning to CFTV, the “one-hybrid fitness for binding parS DNA” value is no more than 0.2.
With WPDC the figure was no more than 0.2.
For KPKV the value was no more than 0.2.
With PIDC the figure was no more than 0.2; with PRCS, no more than 0.2.
On to TAHC, for which the “one-hybrid fitness for binding parS DNA” value is no more than 0.2.
With KTKN the figure was no more than 0.2.
Consider MNTS, for which the “one-hybrid fitness for binding parS DNA” value was no more than 0.2.
For PNGS the value was no more than 0.2; for TSNG, no more than 0.2; for DIVD, no more than 0.2.
With TSQE the figure was no more than 0.2.
Consider YCNA, for which the “one-hybrid fitness for binding parS DNA” value is no more than 0.2.
For GFTD the value was no more than 0.2.
With GIMA the figure was no more than 0.2; with RQLQ, no more than 0.2; with VDVT, no more than 0.2.
With DHIR the figure was no more than 0.2; with IKHS, no more than 0.2; with GGFT, no more than 0.2.
In the case of TRVR, the “one-hybrid fitness for binding parS DNA” value was no more than 0.2.
With HNFC the figure was no more than 0.2; with SFFC, no more than 0.2; with PTGT, no more than 0.2.
For GHTT the value was no more than 0.2.
